# Results published in the supplement of paper PMC3334620.
# In all, about 33,000 sequences were measured (“E-score (-0.5 to 0.5)”: median about -0.016, highest 2% from about 0.31 on). This is one part of the list.
# Target: Cst6 (UniProt P40535)
# Test: PBM E-score (8-mer binding enrichment) (E-score (-0.5 to 0.5)); higher = stronger / more preferred TF binding; most listed sequences are background and not binding sites
# Conditions: protein concentration: 200 nM; construct: GST-DNA-binding domain
# Summary of the method: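 Universal all-10-mer Agilent arrays, double-stranded by primer extension on fresh or once-stripped slides, were probed with about 100-200 nM GST-tagged yeast transcription factors made by PURExpress. Fluorescent anti-GST detected bound protein, and masliner normalised the scans. E-scores from the Universal PBM Analysis Suite were given to each ungapped eight-base word pooled with its reverse complement.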
row,Sequence,PBM E-score
1,CAGCATCG,-0.218
2,AGGGATTC,-0.2
3,CGCTGGCA,-0.0792
4,CCATATGC,0.00439
5,GCAGGACC,-0.307
6,CCACTATA,0.0189
7,GTTTCCGA,-0.0619
8,GCCGGAGC,-0.249
9,CCCATTCG,-0.0868
10,GAAATGAC,0.32
11,AATTTTGC,0.144
12,AAGCCCTG,-0.102
13,AATATGCG,0.124
14,CAACTTCC,0.0402
15,ACCTAGTG,-0.0571
16,AGAGACTA,-0.135
17,CACAGCTC,-0.0417
18,AAGATTGG,0.0246
19,GGCACGAC,-0.071
20,AAATTCTG,0.165
21,CGTCGTAA,0.0583
22,CACAGATC,-0.00896
23,AATGGGTC,-0.223
24,CCGATCCC,-0.415
25,GCGCCATA,-0.0316

row,Sequence,PBM E-score
1,AGTTTGCA,0.044
2,AAATGCAG,-0.141
3,TCTTGCCA,-0.0736
4,TCAGGGAA,-0.141
5,CATGTTTA,0.0329
6,CCCAGGCG,-0.0878
7,CTCTTCTC,-0.137
8,CATTCACA,0.12
9,ACTTGCTC,-0.198
10,ACCATAAT,0.148
11,ACCGACGT,0.036
12,ATCTACTG,0.0739
13,GCACGTTA,0.0802
14,CATGTGGG,-0.204
15,CACAGTGA,0.156
16,AACGGTTC,-0.125
17,AAAGACAA,0.274
18,ACCTGTTC,-0.0262
19,CCGGCAAA,-0.105
20,ACACCATC,0.0241
21,AGCACAAT,0.151
22,GTAATAAA,0.352
23,GTCAGTTA,0.106
24,AAGAGCAT,0.0708
25,ACATGGTG,0.165

row,Sequence,PBM E-score
1,ACGGGACC,-0.259
2,CTCGAGGA,-0.0361
3,ATGGCAAG,-0.0133
4,AGTATCAG,0.0172
5,AGCGCTTC,-0.0215
6,CCCGAACG,-0.136
7,CAAAATGG,-0.0268
8,TAACGGAA,0.0185
9,CACTTGGG,-0.126
10,ACCCGGGT,-0.262
11,CCCCCTTC,-0.415
12,CAACATTC,-0.102
13,TGCCACAA,0.0508
14,CGTTACGC,0.162
15,CTAAAAGC,-0.0998
16,AAATGTTC,0.0602
17,CTTTGAGA,0.22
18,ATTCCGCA,0.00802
19,AACCCATG,0.0101
20,GACCCGCC,-0.106
21,ATAAGTGA,0.231
22,AGCTGCCC,-0.113
23,AGCGTAGA,-0.253
24,AATCAGGA,-0.0589
25,GCCAATAC,-0.118

row,Sequence,PBM E-score
1,ATCACATG,0.109
2,ACAACGGA,0.0907
3,AAGCTCAC,-0.167
4,AGATGGCT,-0.049
5,CCCCTCGG,-0.176
6,ACCACGAC,-0.0633
7,GCTTGCGA,0.0401
8,ATTCATTG,0.0815
9,CTGATCCC,-0.173
10,CTACATAG,-0.0634
11,GGACAGAA,0.0124
12,GATTCCGA,0.0584
13,AAACTAGT,0.062
14,ATGAGCGC,0.0716
15,AAAGATTA,0.189
16,CGCTCTTC,-0.226
17,ATACGAGG,-0.202
18,AGCCGCGA,-0.0946
19,GGACGATA,-0.0175
20,CGTCGCGC,0.146
21,ACTCGCCG,0.0702
22,CATCCCGC,0.0488
23,GTACACCA,-0.0797
24,CAGACTCA,-0.0855
25,CTAGATCA,-0.124

row,Sequence,PBM E-score
1,ACCGTGAG,-0.167
2,TTAAGGAA,0.00952
3,ACACGAAG,0.163
4,AGGAAAGG,-0.155
5,CGTTCAAC,0.15
6,CTTGCTGC,-0.0883
7,GATGCAAC,0.074
8,AACTCGAA,0.105
9,AGCTCATC,-0.112
10,GACGGGCA,0.0343
11,CGCAGTAC,-0.0889
12,TCGCCTAA,-0.0175
13,CCTAACAG,0.00445
14,ACGTTATG,0.333
15,CATGGCTA,-0.0115
16,GCTTATTA,0.175
17,CTGATTCA,0.0585
18,CAGTTGGA,0.0316
19,GACTATCA,-0.104
20,ATCAAAAC,0.109
21,CGTCGATA,0.0681
22,AAAGGCTC,-0.0106
23,ACCTCTTA,0.117
24,TCTCACAA,0.132
25,AATGAGCT,0.0678

row,Sequence,PBM E-score
1,ATCGCAAC,0.0294
2,AATATGCA,0.00239
3,ATCAGACC,-0.0809
4,GATGTAGC,-0.00911
5,GGAAGTCC,-0.257
6,CGGTAAAG,-0.00808
7,CTGGACCC,-0.357
8,ACGATCTA,-0.0876
9,ACTCAAGC,-0.106
10,GATCGCAC,-0.00655
11,ACTGGTCG,-0.206
12,GACAGCAA,0.0708
13,ATGTTAAA,0.275
14,CATTGCCC,-0.241
15,ACGGATGG,0.0437
16,ACGAGGGC,-0.176
17,GCCTCATA,0.0539
18,AGTAATCC,0.0129
19,AGGGCGAG,-0.273
20,GAAGAGTC,-0.131
21,CCCTGATA,-0.123
22,AATAACGA,0.0145
23,CGATACCC,-0.166
24,AGTGTTCG,-0.00631
25,AGACAGGC,-0.22

row,Sequence,PBM E-score
1,AAGGTCCT,-0.228
2,ATACACGA,0.0465
3,CATACATA,0.27
4,AATCGAGT,-0.0583
5,CGACCACC,-0.192
6,GATGTTTA,0.202
7,ATAATAGA,0.216
8,CCACCACC,-0.122
9,AATTGAAT,0.157
10,CTACCACC,-0.274
11,GTGACCCA,0.0463
12,CGTGCACG,0.207
13,ATCCGCGG,0.0614
14,CAAGCAGG,-0.216
15,ACGGCCAA,0.0138
16,CGTCTCGC,-0.185
17,AGCAACTC,-0.166
18,AATCTGAA,0.12
19,AATCTAGC,-0.182
20,GCATCAGC,0.0302
21,TAGCATCA,0.271
22,TCCCAAAA,0.00905
23,CTCCGTTC,-0.0965
24,CACAGACC,-0.0766
25,CACATAGA,0.0738

row,Sequence,PBM E-score
1,ACAGATCA,0.0817
2,GGCGTGGA,-0.211
3,CACTCTCA,0.053
4,GAAATTAA,0.334
5,CCTTACGA,0.0697
6,ATCTCTAA,0.115
7,TCATAACA,0.311
8,ATTTATCC,0.252
9,TAAAATTA,0.283
10,AGAACCCG,-0.168
11,CATCGACC,0.00362
12,GAATGATA,0.278
13,ACGGCACT,0.352
14,AAAACTCA,0.198
15,CGTGTGAG,0.0162
16,TATGAAGA,0.19
17,GCATTTTA,0.183
18,AAGCAATT,0.188
19,AGATGTGA,0.242
20,GTACCAAC,0.0501
21,ATCGAAAC,0.128
22,GCCTAAAA,-0.123
23,CCTGCGCA,-0.26
24,CAGGCCCA,-0.255
25,ACGCTGAC,0.258

row,Sequence,PBM E-score
1,CTTACGCC,0.193
2,ATCGGGTA,-0.104
3,TACATCGA,-0.00243
4,CCAGTTCG,-0.0928
5,AGGAATCC,-0.132
6,GCTGTTAA,0.198
7,CAGTGACG,0.435
8,ACGCGTTG,0.0742
9,CCGTCCTA,-0.179
10,ACAGCTAT,-0.0639
11,ATCGTGAC,0.255
12,CAATTACC,0.138
13,ATTCTCGA,0.112
14,GCTTAGTA,0.0951
15,CCATAGTA,-0.157
16,AGTGAACG,-0.0226
17,CTGCTACC,-0.0843
18,ACTCCTTG,-0.0804
19,AAATACGA,0.167
